Measured values: the supplement of paper PMC12217912
This is one part of the list. Sequences were assembled here from the parent chain. Inactive controls read about 0.05.

B1: TEV protease; numbered along this chain (parent)
chain: MGESLFKGPRDYNPISSSICHLTNESDGHTTSLYGIGFGPFIITNKHLFRRNNGTLVVQSLHGVFKVKDTTTLQQHLVDGRDMIIIRMPKDFPPFPQKLKFREPQREERICLVTTNFQTKSMSSMVSDTSCTFPSGDGIFWKHWIQTKDGQCGSPLVSTRDGFIVGIHSASNFTNTNNYFTSVPKNFMELLTNQEAQQWVSGWRLNADSVLWGGHKVFMVKPEEPFQPVKEATQL

Variants of: B1
Assay: raw area under fraction-flipped curve 0-4 h after induction (AUC4h, not background-subtracted), DNA-recorder readout of cleavage of the substrate (dimensionless); higher = more cleavage of the substrate by the protease variant
Conditions: temperature: 34 °C; time window: 0-4 h after rhamnose induction
Description: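 In vivo DNA recorder in E. coli TOP10(DE3) ΔrhaA at 34 °C. Each TEVp single-site mutant (parent TEVp 0) is paired with a single-site variant of the 7-mer TEVs (canonical ENLYFQ|S). The substrate sits between flexible linkers in a Bxb1-sfGFP-TEVs-SsrA fusion, so cleavage stabilises Bxb1 and speeds flipping of a recombination array, read by NGS. The value is the raw area under the fraction-flipped curve over 0-4 h after rhamnose induction (AUC4h), with ≥20 reads per time point. It is not background-subtracted; inactive controls average about 0.047.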
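Also: Bxb1 expression induced with 0.2% (w/v) L-rhamnose at OD600 near 0.5, cultures sampled hourly, flipped fraction per protease–substrate barcode pair counted by paired-end Illumina sequencing.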

Row | Variant | area with substrate EALYFQS | area with substrate EDLYFQS | area with substrate EELYFQS | area with substrate EGLYFQS | area with substrate EHLYFQS | area with substrate EILYFQS | area with substrate EKLYFQS | area with substrate ELLYFQS | area with substrate EMLYFQS | area with substrate EPLYFQS | area with substrate EQLYFQS | area with substrate ERLYFQS | area with substrate ESLYFQS | area with substrate ETLYFQS | area with substrate EVLYFQS | area with substrate EWLYFQS | area with substrate EYLYFQS | area with substrate ECLYFQS | area with substrate EFLYFQS
1 | MGESLFKGPWDYNPISSSICHLTNESDGHTTSLYGIGFGPFIITNKHLFRRNNGTLVVQSLHGVFKVKDTTTLQQHLVDGRDMIIIRMPKDFPPFPQKLKFREPQREERICLVTTNFQTKSMSSMVSDTSCTFPSGDGIFWKHWIQTKDGQCGSPLVSTRDGFIVGIHSASNFTNTNNYFTSVPKNFMELLTNQEAQQWVSGWRLNADSVLWGGHKVFMVKPEEPFQPVKEATQL [R10W] | 0.123 | 0.15 | 0.105 | 0.122 | 0.165 | 0.0814 | 0.0998 | 0.108 | 0.115 | 0.124 | 0.123 | 0.0922 | 0.0837 | 0.107 | 0.0974 | 0.129 | 0.0551 | – | –
2 | MGESLFKGPRFYNPISSSICHLTNESDGHTTSLYGIGFGPFIITNKHLFRRNNGTLVVQSLHGVFKVKDTTTLQQHLVDGRDMIIIRMPKDFPPFPQKLKFREPQREERICLVTTNFQTKSMSSMVSDTSCTFPSGDGIFWKHWIQTKDGQCGSPLVSTRDGFIVGIHSASNFTNTNNYFTSVPKNFMELLTNQEAQQWVSGWRLNADSVLWGGHKVFMVKPEEPFQPVKEATQL [D11F] | 0.0929 | – | – | 0.0945 | 0.113 | – | 0.0699 | – | 0.0952 | 0.112 | 0.11 | – | 0.11 | – | 0.0986 | 0.085 | 0.0714 | 0.0897 | 0.11
3 | MGESLFKGPRPYNPISSSICHLTNESDGHTTSLYGIGFGPFIITNKHLFRRNNGTLVVQSLHGVFKVKDTTTLQQHLVDGRDMIIIRMPKDFPPFPQKLKFREPQREERICLVTTNFQTKSMSSMVSDTSCTFPSGDGIFWKHWIQTKDGQCGSPLVSTRDGFIVGIHSASNFTNTNNYFTSVPKNFMELLTNQEAQQWVSGWRLNADSVLWGGHKVFMVKPEEPFQPVKEATQL [D11P] | 0.0611 | 0.0694 | – | 0.0577 | 0.0649 | 0.0632 | 0.061 | – | – | 0.0684 | 0.0603 | 0.0641 | 0.0614 | 0.0904 | 0.0665 | 0.0585 | – | – | 0.0739
4 | MGESLFKGPRDCNPISSSICHLTNESDGHTTSLYGIGFGPFIITNKHLFRRNNGTLVVQSLHGVFKVKDTTTLQQHLVDGRDMIIIRMPKDFPPFPQKLKFREPQREERICLVTTNFQTKSMSSMVSDTSCTFPSGDGIFWKHWIQTKDGQCGSPLVSTRDGFIVGIHSASNFTNTNNYFTSVPKNFMELLTNQEAQQWVSGWRLNADSVLWGGHKVFMVKPEEPFQPVKEATQL [Y12C] | 0.101 | – | 0.101 | – | 0.117 | 0.0884 | 0.119 | 0.0886 | 0.104 | 0.138 | 0.118 | – | 0.101 | 0.122 | 0.0816 | 0.0921 | – | 0.111 | –
5 | MGESLFKGPRDMNPISSSICHLTNESDGHTTSLYGIGFGPFIITNKHLFRRNNGTLVVQSLHGVFKVKDTTTLQQHLVDGRDMIIIRMPKDFPPFPQKLKFREPQREERICLVTTNFQTKSMSSMVSDTSCTFPSGDGIFWKHWIQTKDGQCGSPLVSTRDGFIVGIHSASNFTNTNNYFTSVPKNFMELLTNQEAQQWVSGWRLNADSVLWGGHKVFMVKPEEPFQPVKEATQL [Y12M] | 0.0952 | – | 0.0979 | 0.0963 | 0.12 | – | 0.106 | – | 0.116 | 0.106 | 0.114 | 0.109 | 0.125 | 0.105 | 0.0908 | 0.108 | 0.13 | 0.0963 | –
6 | MGESLFKGPRDNNPISSSICHLTNESDGHTTSLYGIGFGPFIITNKHLFRRNNGTLVVQSLHGVFKVKDTTTLQQHLVDGRDMIIIRMPKDFPPFPQKLKFREPQREERICLVTTNFQTKSMSSMVSDTSCTFPSGDGIFWKHWIQTKDGQCGSPLVSTRDGFIVGIHSASNFTNTNNYFTSVPKNFMELLTNQEAQQWVSGWRLNADSVLWGGHKVFMVKPEEPFQPVKEATQL [Y12N] | 0.141 | – | – | 0.0804 | 0.124 | 0.0953 | – | 0.104 | 0.0959 | – | – | 0.148 | 0.109 | – | 0.086 | – | 0.109 | 0.091 | –
7 | MGESLFKGPRDYFPISSSICHLTNESDGHTTSLYGIGFGPFIITNKHLFRRNNGTLVVQSLHGVFKVKDTTTLQQHLVDGRDMIIIRMPKDFPPFPQKLKFREPQREERICLVTTNFQTKSMSSMVSDTSCTFPSGDGIFWKHWIQTKDGQCGSPLVSTRDGFIVGIHSASNFTNTNNYFTSVPKNFMELLTNQEAQQWVSGWRLNADSVLWGGHKVFMVKPEEPFQPVKEATQL [N13F] | 0.118 | – | 0.113 | 0.0892 | 0.107 | 0.0773 | 0.0945 | 0.0731 | 0.111 | 0.138 | 0.0998 | 0.089 | 0.0878 | – | 0.0761 | – | – | 0.0944 | 0.0607
8 | MGESLFKGPRDYHPISSSICHLTNESDGHTTSLYGIGFGPFIITNKHLFRRNNGTLVVQSLHGVFKVKDTTTLQQHLVDGRDMIIIRMPKDFPPFPQKLKFREPQREERICLVTTNFQTKSMSSMVSDTSCTFPSGDGIFWKHWIQTKDGQCGSPLVSTRDGFIVGIHSASNFTNTNNYFTSVPKNFMELLTNQEAQQWVSGWRLNADSVLWGGHKVFMVKPEEPFQPVKEATQL [N13H] | 0.107 | – | 0.122 | 0.0781 | – | 0.101 | 0.0766 | 0.11 | 0.116 | – | – | 0.0967 | 0.105 | – | 0.114 | – | – | 0.0954 | –
9 | MGESLFKGPRDYMPISSSICHLTNESDGHTTSLYGIGFGPFIITNKHLFRRNNGTLVVQSLHGVFKVKDTTTLQQHLVDGRDMIIIRMPKDFPPFPQKLKFREPQREERICLVTTNFQTKSMSSMVSDTSCTFPSGDGIFWKHWIQTKDGQCGSPLVSTRDGFIVGIHSASNFTNTNNYFTSVPKNFMELLTNQEAQQWVSGWRLNADSVLWGGHKVFMVKPEEPFQPVKEATQL [N13M] | 0.112 | – | 0.126 | 0.1 | 0.109 | 0.0762 | – | 0.118 | 0.129 | – | – | 0.119 | 0.105 | 0.14 | 0.105 | – | 0.102 | 0.117 | –
